The target of assay [1] is T1, MKP-3 C293S (mouse) (UniProt Q9DBB1).
T1 sequence: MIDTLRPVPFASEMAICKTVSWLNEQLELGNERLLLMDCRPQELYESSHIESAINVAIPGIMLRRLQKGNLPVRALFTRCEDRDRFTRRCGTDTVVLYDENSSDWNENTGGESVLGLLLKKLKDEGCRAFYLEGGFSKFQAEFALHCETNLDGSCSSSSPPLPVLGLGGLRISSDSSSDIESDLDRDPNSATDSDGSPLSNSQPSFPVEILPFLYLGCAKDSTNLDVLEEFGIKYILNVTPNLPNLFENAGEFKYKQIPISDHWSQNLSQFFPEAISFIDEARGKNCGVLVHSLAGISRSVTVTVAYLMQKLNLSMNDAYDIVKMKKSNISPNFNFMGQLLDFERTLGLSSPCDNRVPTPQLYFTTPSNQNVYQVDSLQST
The experiment in a line: co-IP; MKP-3 (WT or mutant) and FOXO1 (WT or mutant) co-expressed in Fao hepatoma cells by adenovirus; MKP-3 immunoprecipitated from precleared lysate with MKP-3 antibody-bound Exactra D matrix; western blot. (In general: Immunoblotting shows a protein as a band on a membrane.)

Amino acid sequences for entries named in this document (tags omitted). A change or cut given only in a name is not applied to a line headed by its entry. Chains listed by the source or under a name are the forms on record and can include a tag or linker.
UniProt Q9R1E0: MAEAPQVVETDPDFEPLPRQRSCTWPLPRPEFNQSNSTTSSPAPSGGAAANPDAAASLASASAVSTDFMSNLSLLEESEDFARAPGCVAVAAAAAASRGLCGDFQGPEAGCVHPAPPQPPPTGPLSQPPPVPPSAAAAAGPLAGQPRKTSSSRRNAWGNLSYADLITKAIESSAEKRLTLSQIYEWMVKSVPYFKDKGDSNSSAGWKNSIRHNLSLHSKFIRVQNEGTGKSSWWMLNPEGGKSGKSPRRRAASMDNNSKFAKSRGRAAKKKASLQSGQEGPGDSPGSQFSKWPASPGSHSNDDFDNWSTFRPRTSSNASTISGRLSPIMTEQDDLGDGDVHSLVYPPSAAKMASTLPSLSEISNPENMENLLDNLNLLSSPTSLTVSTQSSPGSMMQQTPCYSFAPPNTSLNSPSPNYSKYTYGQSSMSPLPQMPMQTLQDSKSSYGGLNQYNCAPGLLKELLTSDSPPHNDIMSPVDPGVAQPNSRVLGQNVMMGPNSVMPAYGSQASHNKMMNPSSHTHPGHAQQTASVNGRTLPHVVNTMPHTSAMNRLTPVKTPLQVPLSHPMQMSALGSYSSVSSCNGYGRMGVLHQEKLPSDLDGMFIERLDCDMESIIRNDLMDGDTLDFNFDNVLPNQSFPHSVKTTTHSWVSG
FOXO1 9A (ERK phosphorylation resistant FOXO1 mutant) (Q9R1E0, form named): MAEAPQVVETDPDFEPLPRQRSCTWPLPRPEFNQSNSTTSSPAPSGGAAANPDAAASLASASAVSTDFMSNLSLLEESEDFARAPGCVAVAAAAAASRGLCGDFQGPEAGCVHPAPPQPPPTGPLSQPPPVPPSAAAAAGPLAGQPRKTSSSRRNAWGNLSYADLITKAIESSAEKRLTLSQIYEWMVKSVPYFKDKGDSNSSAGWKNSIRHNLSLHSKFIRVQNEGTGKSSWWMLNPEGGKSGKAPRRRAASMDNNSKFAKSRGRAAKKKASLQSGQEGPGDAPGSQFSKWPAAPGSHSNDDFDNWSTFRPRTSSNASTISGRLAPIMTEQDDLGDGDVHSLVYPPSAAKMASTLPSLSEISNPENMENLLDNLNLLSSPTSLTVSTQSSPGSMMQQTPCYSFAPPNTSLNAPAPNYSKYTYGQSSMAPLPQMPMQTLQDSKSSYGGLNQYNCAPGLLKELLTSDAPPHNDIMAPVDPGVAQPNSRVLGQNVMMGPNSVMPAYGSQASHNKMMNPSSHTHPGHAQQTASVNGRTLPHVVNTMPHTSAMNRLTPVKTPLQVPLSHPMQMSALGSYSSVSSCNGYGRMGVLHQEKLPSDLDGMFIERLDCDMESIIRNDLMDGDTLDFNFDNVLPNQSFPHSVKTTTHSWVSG

Assay [2] concerns the target T2, MKP-3 1–200 (mouse) (UniProt Q9DBB1).
T2 sequence: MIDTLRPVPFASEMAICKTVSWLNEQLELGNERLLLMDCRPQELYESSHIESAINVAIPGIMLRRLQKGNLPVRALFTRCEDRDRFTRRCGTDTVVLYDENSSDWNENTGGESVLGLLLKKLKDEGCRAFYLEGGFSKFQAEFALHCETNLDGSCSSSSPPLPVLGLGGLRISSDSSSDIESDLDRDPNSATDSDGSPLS
Described as above.

The target of assay [3] is T3, MKP-3 153–381 (mouse) (UniProt Q9DBB1).
T3 sequence: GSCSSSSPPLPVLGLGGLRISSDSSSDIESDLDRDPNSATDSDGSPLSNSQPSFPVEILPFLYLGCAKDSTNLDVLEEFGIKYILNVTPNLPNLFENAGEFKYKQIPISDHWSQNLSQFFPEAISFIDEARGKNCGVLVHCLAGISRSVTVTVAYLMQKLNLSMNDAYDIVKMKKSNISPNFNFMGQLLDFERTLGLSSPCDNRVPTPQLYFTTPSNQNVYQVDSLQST
The assay is described as above.

Assay [4] deals with T4, MKP-3 1–260 (mouse) (UniProt Q9DBB1).
T4 sequence: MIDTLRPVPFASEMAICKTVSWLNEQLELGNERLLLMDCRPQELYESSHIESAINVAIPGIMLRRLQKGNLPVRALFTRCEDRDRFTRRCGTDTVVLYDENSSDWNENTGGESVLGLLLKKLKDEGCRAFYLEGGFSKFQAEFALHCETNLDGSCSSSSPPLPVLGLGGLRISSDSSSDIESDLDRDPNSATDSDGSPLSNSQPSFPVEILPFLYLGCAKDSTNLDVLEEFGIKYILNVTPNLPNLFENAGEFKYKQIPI
The description is as above.

In assay [5] the target is T5, MAP kinase phosphatase 3 (MKP-3) wild type (mouse) (UniProt Q9DBB1).
T5 sequence: T1 sequence with S293C
The assay is described as above.

Assay [6] addresses T6, MKP-3 1–320 (mouse) (UniProt Q9DBB1).
T6 sequence: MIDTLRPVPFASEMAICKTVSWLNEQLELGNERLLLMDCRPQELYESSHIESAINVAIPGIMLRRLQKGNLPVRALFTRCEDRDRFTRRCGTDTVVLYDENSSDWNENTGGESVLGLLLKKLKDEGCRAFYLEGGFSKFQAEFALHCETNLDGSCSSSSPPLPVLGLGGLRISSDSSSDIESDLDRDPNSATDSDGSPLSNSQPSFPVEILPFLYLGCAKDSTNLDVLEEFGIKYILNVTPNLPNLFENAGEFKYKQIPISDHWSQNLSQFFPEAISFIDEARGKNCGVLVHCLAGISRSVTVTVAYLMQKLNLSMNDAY
The description is as above.

For assay [7], the target named is T7, MKP-3, endogenous in mouse liver (mouse (endogenous in C57BL/6 liver)) (UniProt Q9DBB1).
T7 sequence: T1 sequence with S293C
The experiment in a line: co-IP; liver lysates of C57BL/6 mice injected with adenoviruses (GFP or FOXO1 3A, plus shGFP or shMKP-3); MKP-3 immunoprecipitated with MKP-3 antibody-bound Exactra D matrix; western blot for FOXO1, quantified.

Positions count from the first letter of the chain named. These are yes or no findings as the source states them, for the method shown. Binding seen in cells or lysates may run through a third protein. Some binding calls cover weakened binding; strength is not graded here.

For the substance “FOXO1 wild type (from UniProt Q9R1E0 1-652)”, the binding result in assay [1] is on record as “binds”; in assay [2], “no binding”; in assay [3], “binds”; in assay [4] it was “binds”; in assay [5] it was “binds”; in assay [6] it was “binds”.

“FOXO1 1–280 (from UniProt Q9R1E0 1-280) (domain or fragment)”: the binding entry in assay [5] is reported as “no binding”.

With “FOXO1 1–360 (from UniProt Q9R1E0 1-360) (domain or fragment)”, the binding entry in assay [5] is “no binding”.

On to “FOXO1 1–456 (from UniProt Q9R1E0 1-456) (domain or fragment)”, for which, in assay [5], the binding entry is listed as “binds weakly”.

As to “FOXO1 9A (ERK phosphorylation resistant FOXO1 mutant) (from UniProt Q9R1E0 1-652)”, the binding result in assay [5] is “no binding”.

Turning to “FOXO1 1–558 (from UniProt Q9R1E0 1-558) (domain or fragment)”, in assay [5], the binding entry is given as “binds weakly”.

Take “FOXO1, endogenous in mouse liver (from UniProt Q9R1E0 1-652)”: in assay [7], the binding entry is “binds”.

The record behind these values is paper PMC3405053.
